In the supplement of paper PMC11417369:
± gives the standard deviation of the averaged measurements. Some of the results follow.

test system: PfAP2-EXP AP2 domain (GST-tagged); assay: gcPBM binding intensity (ln(normalized median fluorescence intensity)); higher = stronger DNA binding
Summary of the method: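 After 1 h on an Agilent 4 × 180k array of primer-extended double-stranded 36-bp intergenic genomic probes and negative controls, bound GST-tagged P. falciparum DNA-binding domains were detected with Alexa488 anti-GST antibody and scanned at 488 nm. The domains had been expressed in E. coli, and binding took place in 1× PBS with 1% milk, 0.2 mg/ml BSA, 0.5% salmon testes DNA and 0.03% Triton X-100. Binding intensity is the highest Masliner-normalised natural-log median intensity across replicate spots of either probe orientation.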

Sequence | gcPBM binding intensity (ln)
TTTTTATGAAAATAAACACACGATTTATTATATATA [CACACA_site1311] | 8.27 ± 0.34
TTCTATATATTATATGCATGTAAAACATATTAAAAT [TGCATGCA_site662] | 8.78 ± 0.42
TTTTTCAATTGTAGTGGTACAGATATAATTATCTCT [XGTACX_site5500] | 8.67 ± 0.57
TAATTATTACACGGTATTATATATAATATGTTAAAA [GTGCAC_negctrl_site134] | 8.41 ± 0.35
TTTTTTGTTAAACCGGTGCATATAAATATATATATA [GTGCAC_site9989] | 9.72 ± 0.071
ATCATTTTTTATGCGTGTACATAAATTTATTAGGTT [XGTACX_site2786] | 8.84 ± 0.36
CACAAAAAAGTTCATACACACAACATATTTATATAT [CACACA_site2887] | 8.39 ± 0.39
ATATCTATATTTTAAAGTACGTAGTAAAAAGAAAAA [XGTACX_site4323] | 8.69 ± 0.4
TTTTTTTTTTTTCTGTGTACATATATAATATATATA [XGTACX_site1592] | 8.78 ± 0.33
TTTTATGAAAAGATGAGTACACAATACTTTTTAATT [XGTACX_site8253] | 8.19 ± 0.35
TTGTCACTAATAGATGCATGCAATCATTCCATTTTT [TGCATGCA_site938] | 9.64 ± 0.37
TTATGTCGTAAATACACACATACATATACATACACA [CACACA_site1374] | 8.49 ± 0.39
AATAAATTGAAACACACACACACATATATATATATA [CACACA_site848] | 10.2 ± 0.32
TTGTAATGATATATTTGTACTTAATATAATTGTATA [XGTACX_site2748] | 8.29 ± 0.33
GTTACATACCTATACACACACATATATAAATAAATA [CACACA_site6549] | 8.65 ± 0.4
TAACAAAACATAGATTGTACATATTATAAATGTATA [XGTACX_site1543] | 8.46 ± 0.38
CAAAATATACACACGTGTACACAAATATTTACAAAA [XGTACX_site2257] | 8.74 ± 0.4
TTTCCCATAGGAAAAACACACATATATTATATATAA [CACACA_site1981] | 8.3 ± 0.48
CAATATTATATTACTTGTACACATATGTAGTTTCGA [XGTACX_site8945] | 8.64 ± 0.33
TATTCTTATCTTACCACACACAATGTACGAAAAGAT [CACACA_site6296] | 8.61 ± 0.3
ATATAAAAATACAGGTGTACATTTTTTCATATTTAT [XGTACX_site6959] | 8.42 ± 0.34
TTTTTTGAAAATAAAAGTACAAATTTTATATTTAAA [XGTACX_site2758] | 8.08 ± 0.42

Sequence | gcPBM binding intensity (ln)
ACAAACTAAAAAAGAAGTACAAATCGTATTAATAAT [XGTACX_site8684] | 8.87 ± 0.49
AGAAAAAAACGGTACAGTACACATAAACTAATTATT [XGTACX_site8617] | 8.81 ± 0.52
TATTATATATGGAAGTAATAATATATATATATATAT [GTGCAC_negctrl_site63] | 9.96 ± 0.62
GTTAATTCATTAAGGACACACAAAAAAAAAAAAAAA [CACACA_site998] | 8.18 ± 0.47
ATGAATATAAAATATACACACTTATATATTGAATGA [CACACA_site4274] | 8.16 ± 0.32
GATTAAATTTGACACTGTACAAAAAATAAAATGAGG [XGTACX_site504] | 8.78 ± 0.4
CTTATATGAAGCCTCTTTATTCATAAATAAGAATAA [TGCATGCA_negctrl_site120] | 8.12 ± 0.45
AGTATACATATATATACACACACATATATATATATA [CACACA_site7883] | 9.98 ± 0.62
CCAACATAGAGGGGCACACACATATATACATAAAAA [CACACA_site1847] | 8.54 ± 0.2
TTAACAAAATTTCCGTGTACGTAAATAAGAACATAG [XGTACX_site7200] | 8.82 ± 0.18
AAACAACATGGACACGCACACACAAAAAAAGCATGC [CACACA_site73] | 9.16 ± 0.13
TTACATACATACAAGTGTACGCATATATTAATATTA [XGTACX_site4006] | 8.86 ± 0.37
TTTAACATTTCAGATGTGCACATTTTCCGAACCAGT | 8.885 ± 0.021
ATATGTACAAGTTATACACACATGTACAGTTATATA [CACACA_site6706] | 8.69 ± 0.14
AGAACGACTAAGCAGTGTACATTTTGTATATACAAT [XGTACX_site2831] | 8.62 ± 0.31
AAAGAACTTAATGCTGCACACAAAAAAAAGGAAAAA [CACACA_site8375] | 8.61 ± 0.36
TAAATGTGTATATATTGTACAAATATTAATACATAC [XGTACX_site8102] | 8.58 ± 0.21
AAATTGTTAAAAAGAAGTACATTCTTTTATTTCTTA [XGTACX_site540] | 8.17 ± 0.23
ATAATGAAGACTTTTTTACACACTTCATATATTATA [CACACA_site8630] | 8.86 ± 0.53
TGATATTTTTCCATAGTGCAAAATATAGTAATGTAT | 8.59 ± 0.12
ATATAACATAATGGATGTACATGTATAAATATAAAA [XGTACX_site8228] | 9.02 ± 0.45
ATATATATGGTCATTTGTACATATCGTGAGAGCTGC [XGTACX_site4117] | 8.79 ± 0.43
